# Data as given in PubChem BioAssay AID686971 (National Center for Advancing Translational Sciences (NCATS), 2013).
# Screen size: about 360,000 compounds; about 7,500 (2.1%) were called active. The shares of active, inactive and inconclusive entries below differ from those in the screen. Calls come from the whole dose curve; as a rule, active = well fitted cell-killing curve with a large enough effect; inconclusive = small, poorly fitted or top-dose-only effect, or effect the other way, or another doubt; inactive = no such curve, though single readings can be large or run the other way. Potencies of inconclusive entries are left out as doubtful fits.
# Assay: qHTS for induction of synthetic lethality in tumor cells producing 2HG: qHTS for the HT-1080-IDH1KD cell line;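 for activity, negative = toxicity: 0% = DMSO wells and -100% = cell-free medium wells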
# Details: HT-1080 IDH1 knockdown viability, ATP luminescence, 48 h; activity, negative = toxicity: at 46.1 µM (top of the series) unless noted
# How it was run: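 HT-1080-IDH1KD cells (IDH1 knocked down), 750/well in RPMI with 5% FBS, treated with compound 48 h at 37 degrees C. Viability by CellTiter-Glo luminescence, normalised to DMSO and no-cell wells; concentration-response curves classed.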
# Potency is the fitted concentration of half-maximal effect; tags give direction and shape of the fitted curve.
Compound,Potency,"activity, negative = toxicity"
O=C1CN(C(=O)c2c(F)cccc2F)C(c2ccccc2)c2cc(Br)ccc2N1 (stereo unspecified),"inconclusive [cytotoxic, single point]",–
CC(C)(C)c1cc(C(=O)NCCN2CCCC2)cc(C(C)(C)C)c1,"inconclusive [cytotoxic, single point]",–
O=S(=O)(CCN1CCN(C(c2ccccc2)c2ccccc2)CC1)C(F)(F)F,active: 17.8 µM,–
COc1ccc(N(CC(=O)Nc2ccc(C)cc2C)S(=O)(=O)c2c(C)n[nH]c2C)cc1,"inconclusive [cytotoxic, single point]",–
Cc1ccc(CSC(Nc2ccc(F)cc2)=C(C#N)C#N)cc1,"inconclusive [cytotoxic, partial curve, poor fit]",–
O=C(CCS(=O)(=O)Cc1ccc(Cl)cc1)NCCCN1CCN(c2ccccc2F)CC1,"inconclusive [cytotoxic, single point]",–
C/C(Cn1nnc([N+](=O)[O-])n1)=N\NC(=O)c1ccccc1,"inconclusive [cytotoxic, single point]",–
O=C(N/N=C/C(Br)=C\c1ccccc1)c1cccs1,active: 20.6 µM,–
Cc1ccc([C@H]2C[C@H](n3cc(C4CC4)nn3)[C@@H](O)CN2C(=O)c2cccs2)cc1,inactive,–
CCOC(=O)Nc1nc(-c2ccccc2)c(C(=O)c2ccccc2)s1,active: 0.58 µM,–
CCCCCCCCCCOC(=O)Cn1c(COc2ccc(OC)cc2)[n+](C)c2ccccc21,active: 13 µM,–
C/C(=N\N=C(/N)SC1CC(=O)N(c2ccc(Br)cc2)C1=O)c1cccs1 (stereo unspecified),"inconclusive [cytotoxic, single point]",–
COc1cccc(N=Nc2ccc(O)c3ncccc23)c1,"inconclusive [cytotoxic, full curve]",–
COC(=O)C(C)N(C(=O)c1ccc(C(=O)c2ccccc2)cc1)c1c(C)cccc1C (stereo unspecified),"inconclusive [cytotoxic, single point]",–
CCC(=Nc1ccccc1)C1=C(O)CCCC1=O,–,inconclusive: -10.7% [cytotoxic]
COc1cc2nc(SCc3ccc(Cl)cc3Cl)n(Cc3cccs3)c(=N)c2cc1OC,inactive,–
CCc1ccc(-c2nn(-c3ccccc3)cc2CSC(=N)N)cc1,"inconclusive [cytotoxic, single point]",–
Fc1ccc(NC(=S)NCCc2ccccc2)c(F)c1F,"inconclusive [cytotoxic, single point]",–
Cc1nc(Nc2ccc(Cl)cc2)c2nnn(Cc3ccccc3)c2n1,inactive,–
NC(=O)C1=CC2C3C=CC2(O)C(=O)OC3O1 (stereo unspecified),active: 20.6 µM,–
COc1ccc2nc(/C(C#N)=C\c3ccc(C(=O)O)cc3)[nH]c2c1,"inconclusive [cytotoxic, single point]",–
CN(C)S(=O)(=O)c1ccc(C(=O)OCC2CCCO2)cc1 (stereo unspecified),inactive,–
COc1ccc(NC(=O)c2cc(-c3ccc(C)c(C)c3O)n[nH]2)cc1Cl,"inconclusive [cytotoxic, single point]",–

Compound,Potency,"activity, negative = toxicity"
CC(=O)c1cccc(-c2ccnc3c2CC(C(=O)Nc2ccc4c(c2)OCO4)O3)c1 (stereo unspecified),active: 2.31 µM,–
Cc1cc(CNC(=O)COc2ccccc2)c2ccccc2n1,inactive,–
CCOc1cc(/C=N/NC(=O)c2ccc(=O)n(C)c2)ccc1O,inactive,–
Cc1ccccc1C(=O)O/N=C/c1c(N2CCOCC2)n(C)c2ccccc12,active: 2.51 µM,–
CCCC(=O)N1CCN(c2ccc(NC(=O)c3cc4ccccc4o3)cc2Cl)CC1,active: 20.6 µM,–
CCCCNC(=O)C1C(c2ccc(OC)cc2)=Nc2ccccc2N1C(=O)c1ccc2ncccc2c1 (stereo unspecified),"inconclusive [cytotoxic, single point]",–
c1ccc2c(c1)CCN(c1nc3cc4c(cc3s1)OCCO4)C2,"inconclusive [cytotoxic, single point]",–
Nc1c(C(=O)Nc2ccccc2F)sc2nc(-c3cccnc3)ccc12,active: 13 µM,–
O=C(Cc1ccc(NC(=O)C2CCN(C(=O)C3CC3)CC2)cc1)Nc1cccc(C(=O)N2CCCC2)c1,inactive,–
O=C1NC[C@@H](CCCCN2C[C@H](Cc3ccc(O)cc3)N(CCC3CCCCC3)C(=O)C2=O)N(CCC2CCCCC2)C1=O,"inconclusive [cytotoxic, single point]",–
Clc1ccc(OCCCCCN2CCCC2)c(Br)c1,"inconclusive [cytotoxic, single point]",–
Cc1cc(C(=O)Nc2ccncc2)ccc1[N+](=O)[O-],inactive,–
O=C(N/N=C/c1ccccc1O)/C(=C/c1ccccc1)CCO,active: 3.26 µM,–
CCc1cc(C(c2ccccc2OC)N2CCOCC2)c(NC(=O)c2ccccc2)s1 (stereo unspecified),"inconclusive [cytotoxic, single point]",–
O=C(O)COc1ccc(-c2nc(-c3ccccc3)c(-c3ccccc3)[nH]2)cc1,"inconclusive [rising, partial curve]",–
CCc1ccc2[nH]c(=O)c(CN(Cc3ccccc3)C(=O)Nc3ccccc3OC)cc2c1,"inconclusive [cytotoxic, single point]",–
COc1ccc(/C=N/NC(=O)c2cccc(NC(=O)c3ccccc3Cl)c2)cc1,active: 2.31 µM,–
COC(=O)c1sc(-c2ccc(C(C)(C)C)cc2)cc1NC(=O)/C=C/C(=O)O,"inconclusive [cytotoxic, single point]",–
CCCC/C(=N\NC(=O)c1ccc(Br)o1)c1ccccc1,inactive,–
COc1cc(C(=O)NNC(=O)c2nn(C)c(=O)c3ccccc23)cc(OC)c1OC,inactive,–
COc1cc(/C=N\NC(=O)c2nonc2N)c(OC)cc1Br,"inconclusive [cytotoxic, single point]",–
C#CCn1c(S(=O)(=O)Cc2ccc(OC)cc2)nc(-c2ccccc2)c1-c1ccccc1,"inconclusive [cytotoxic, single point]",–
CCCCC(=O)N/N=C/c1ccc(-c2ccc([N+](=O)[O-])cc2)o1,inactive,–
